Source: PMC10668032
Some of the results follow. At the low end of the ranking the order means little.

Target: SIX1 homeodomain (reference allele) (UniProt Q15475)
Test: universal protein binding microarray
Settings: Universal all-10-mer PBM (8x60K, AMADID 030236), 300 nM GST-tagged protein, Alexa Fluor 488 anti-GST; buffer, salt, pH and temperature not stated; high values mean tight binding; most listed sequences are background and not binding sites; double strand, one strand shown

Row | Sequence | binding signal
1 | ACCCGGAG | 0.194 E-score
2 | CTTACCAA | 0.0209 E-score
3 | AACGGCAG | -0.136 E-score
4 | CAAGACTC | -0.147 E-score
5 | GTTACAAC | -0.111 E-score
6 | AGTTGCAA | -0.156 E-score
7 | CACTAGAG | -0.146 E-score
8 | CATAACGG | -0.127 E-score
9 | TCAGTAGA | 0.0265 E-score
10 | CCTCTATA | 0.0311 E-score
11 | GGACAATA | 0.0395 E-score
12 | GTCTTGTA | -0.0499 E-score
13 | GATCTACA | 0.194 E-score
14 | CCAGAAAG | -0.127 E-score
15 | GCCCTCGC | -0.0482 E-score
16 | CGGAGTTA | 0.00598 E-score
17 | AGCCAAGG | -0.117 E-score
18 | GTCAGCAA | -0.254 E-score
19 | CACGAAAA | -0.186 E-score
20 | TGGATACA | 0.351 E-score
21 | CTGGACGA | -0.0365 E-score
22 | CTGGAAAA | -0.1 E-score

Row | Sequence | binding signal
23 | CCCCTGCC | -0.115 E-score
24 | ACAGAGCT | -0.156 E-score
25 | GCGTCAGA | -0.075 E-score
26 | ATAGGACC | -0.0117 E-score
27 | CAGTAACA | -0.186 E-score
28 | AAATAACG | -0.0842 E-score
29 | ACACAACA | -0.046 E-score
30 | ACAAACGA | 0.012 E-score
31 | AGCGGTCG | -0.171 E-score
32 | CAGAAAAG | -0.141 E-score
33 | GAACCAAA | -0.148 E-score
34 | GATGAAAC | 0.0818 E-score
35 | TCTAGCCA | 0.0612 E-score
36 | CTGGAACA | -0.056 E-score
37 | GATTAGCA | -0.214 E-score
38 | AGCAGGGA | -0.169 E-score
39 | CGTTAGTA | 0.194 E-score
40 | ATGGCTAC | -0.165 E-score
41 | AGTAACAT | -0.122 E-score
42 | CAGTCAAA | -0.148 E-score
43 | AAACACAT | -0.117 E-score
44 | AGATGGCA | -0.00818 E-score

Row | Sequence | binding signal
45 | CGCAATTC | -0.114 E-score
46 | CACTAGTA | 0.078 E-score
47 | ACATTAGC | -0.144 E-score
48 | AATAACTG | -0.103 E-score
49 | AATGAGGA | -0.176 E-score
50 | ACTGGCCT | 0.139 E-score
51 | CCTGCTTA | 0.0271 E-score
52 | ATAGAGCA | -0.0939 E-score
53 | CTAAGCGC | -0.0919 E-score
54 | GACGGCCA | -0.109 E-score
55 | ATCAGCAT | 0.208 E-score
56 | CAGTGCCA | -0.0607 E-score
57 | CACGGGTA | 0.238 E-score
58 | AAACCTTG | 0.00133 E-score
59 | AGCTCACA | 0.101 E-score
60 | AGAGAAAA | -0.215 E-score
61 | CTAGCCGA | 0.146 E-score
62 | CCTGGAGA | -0.11 E-score
63 | TCATTACA | 0.0188 E-score
64 | GAAGAGTA | 0.0559 E-score
65 | ATGGTGAC | -0.09 E-score
66 | TAGCTCCA | -0.0487 E-score

Row | Sequence | binding signal
67 | AGATCGGG | 0.294 E-score
68 | ACTCGACC | -0.0247 E-score
69 | CGGCGCTA | -0.176 E-score
70 | GGGGAGTA | 0.251 E-score
71 | CCCGCAGA | -0.121 E-score
72 | CAGAATGA | -0.0849 E-score
73 | AAAGGTAA | -0.197 E-score
74 | CCGACCGG | 0.133 E-score
75 | GCGTAACC | -0.224 E-score
76 | CTCTAAAA | -0.163 E-score
77 | CGCAGTAC | -0.109 E-score
78 | GCCGGGCC | -0.166 E-score
79 | ATGAGCAG | -0.0456 E-score
80 | CTACCGTC | -0.252 E-score
81 | TCGCTCCA | -0.076 E-score
82 | CGTGCAAC | -0.0892 E-score
83 | TACATAGA | 0.0801 E-score
84 | GCACCTGC | -0.17 E-score
85 | ATGTAAGG | -0.147 E-score
86 | TTAAGCAA | -0.15 E-score
87 | CATGATGG | -0.139 E-score
88 | ACTGTAGG | -0.0417 E-score

Row | Sequence | binding signal
89 | GGTCCAAA | -0.297 E-score
90 | TCCGCCCA | 0.0461 E-score
91 | ATATGTTA | 0.12 E-score
92 | ACCGTATA | 0.278 E-score
93 | GAGCCAAC | -0.268 E-score
94 | CCCAAGTA | -0.0046 E-score
95 | AGATGCAT | -0.0317 E-score
96 | GCCGAGAA | -0.194 E-score
97 | AGCTTCCC | -0.0879 E-score
98 | CCACGTTC | -0.215 E-score
99 | ACCCCTGG | 0.193 E-score
100 | CTCCCAAA | -0.213 E-score
101 | GCACCGCA | -0.028 E-score
102 | GGCAGCCA | -0.186 E-score
103 | CTTACATC | 0.00378 E-score
104 | AACTATGT | -0.255 E-score
105 | GGTCACAC | 0.00178 E-score
106 | CTTGAACA | -0.141 E-score
107 | ACTGGTAC | -0.0304 E-score
108 | AACGGTAA | -0.122 E-score
109 | CGTGAACG | -0.174 E-score
110 | GCCAGCAC | -0.19 E-score
